According to US20250011379A1 (VERTEX PHARMACEUTICALS, published 2025):

B1: Const. No. 34: HSA-GGSSGG-hCFI; H554K (enzyme)
chain: [not shown - about 600 residues]GGSSGGKVTYTSQEDLVEKKCLAKKYTHLSCDKVFCQPWQRCIEGTCVCKLPYQCPKNGTAVCATNRRSFPTYCQQKSLECLHPGTKFLNNGTCTAEGKFSVSLKHGNTDSEGIVEVKLVDQDKTMFICKSSWSMREANVACLDLGFQQGADTQRRFKLSDLSINSTECLHVHCRGLETSLAECTFTKRRTMGYQDFADVVCYTQKADSPMDDFFQCVNGKYISQMKACDGINDCGDQSDELCCKACQGKGFHCKSGVCIPSQYQCNGEVDCITGEDEVGCAGFASVTQEETEILTADMDAERRRIKSLLPKLSCGVKNRMHIRRKRIVGGKRAQLGDLPWQVAIKDASGITCGGIYIGGCWILTAAHCLRASKTHRYQIWTTVVDWIHPDLKRIVIEYVDRIIFHENYNAGTYQNDIALIEMKKDGNKKDCELPRSIPACVPWSPYLFQPNDTCIVSGWGREKDNERVFSLQWGEVKLISNCSKFYGNRFYEKEMECAGTYDGSIDACKGDSGGPLVCMDANNVTYVWGVVSWGENCGKPEFPGVYTKVANYFDWISYKVGRPFISQYNV
B2: Const. No. 26: HSA-GGSSGG-hCFI; E401K (enzyme)
chain: [not shown - about 600 residues]GGSSGGKVTYTSQEDLVEKKCLAKKYTHLSCDKVFCQPWQRCIEGTCVCKLPYQCPKNGTAVCATNRRSFPTYCQQKSLECLHPGTKFLNNGTCTAEGKFSVSLKHGNTDSEGIVEVKLVDQDKTMFICKSSWSMREANVACLDLGFQQGADTQRRFKLSDLSINSTECLHVHCRGLETSLAECTFTKRRTMGYQDFADVVCYTQKADSPMDDFFQCVNGKYISQMKACDGINDCGDQSDELCCKACQGKGFHCKSGVCIPSQYQCNGEVDCITGEDEVGCAGFASVTQEETEILTADMDAERRRIKSLLPKLSCGVKNRMHIRRKRIVGGKRAQLGDLPWQVAIKDASGITCGGIYIGGCWILTAAHCLRASKTHRYQIWTTVVDWIHPDLKRIVIEYVDRIIFHKNYNAGTYQNDIALIEMKKDGNKKDCELPRSIPACVPWSPYLFQPNDTCIVSGWGREKDNERVFSLQWGEVKLISNCSKFYGNRFYEKEMECAGTYDGSIDACKGDSGGPLVCMDANNVTYVWGVVSWGENCGKPEFPGVYTKVANYFDWISYHVGRPFISQYNV
B3: Const. No. 60: HSA-GGSSGG-hCFI; K368D (enzyme)
chain: [not shown - about 600 residues]GGSSGGKVTYTSQEDLVEKKCLAKKYTHLSCDKVFCQPWQRCIEGTCVCKLPYQCPKNGTAVCATNRRSFPTYCQQKSLECLHPGTKFLNNGTCTAEGKFSVSLKHGNTDSEGIVEVKLVDQDKTMFICKSSWSMREANVACLDLGFQQGADTQRRFKLSDLSINSTECLHVHCRGLETSLAECTFTKRRTMGYQDFADVVCYTQKADSPMDDFFQCVNGKYISQMKACDGINDCGDQSDELCCKACQGKGFHCKSGVCIPSQYQCNGEVDCITGEDEVGCAGFASVTQEETEILTADMDAERRRIKSLLPKLSCGVKNRMHIRRKRIVGGKRAQLGDLPWQVAIKDASGITCGGIYIGGCWILTAAHCLRASDTHRYQIWTTVVDWIHPDLKRIVIEYVDRIIFHENYNAGTYQNDIALIEMKKDGNKKDCELPRSIPACVPWSPYLFQPNDTCIVSGWGREKDNERVFSLQWGEVKLISNCSKFYGNRFYEKEMECAGTYDGSIDACKGDSGGPLVCMDANNVTYVWGVVSWGENCGKPEFPGVYTKVANYFDWISYHVGRPFISQYNV
B4: Const. No. 5: HSA-GGSSGG-hCFI; L307W (enzyme)
chain: [not shown - about 600 residues]GGSSGGKVTYTSQEDLVEKKCLAKKYTHLSCDKVFCQPWQRCIEGTCVCKLPYQCPKNGTAVCATNRRSFPTYCQQKSLECLHPGTKFLNNGTCTAEGKFSVSLKHGNTDSEGIVEVKLVDQDKTMFICKSSWSMREANVACLDLGFQQGADTQRRFKLSDLSINSTECLHVHCRGLETSLAECTFTKRRTMGYQDFADVVCYTQKADSPMDDFFQCVNGKYISQMKACDGINDCGDQSDELCCKACQGKGFHCKSGVCIPSQYQCNGEVDCITGEDEVGCAGFASVTQEETEILTADMDAERRRIKSLLPKWSCGVKNRMHIRRKRIVGGKRAQLGDLPWQVAIKDASGITCGGIYIGGCWILTAAHCLRASKTHRYQIWTTVVDWIHPDLKRIVIEYVDRIIFHENYNAGTYQNDIALIEMKKDGNKKDCELPRSIPACVPWSPYLFQPNDTCIVSGWGREKDNERVFSLQWGEVKLISNCSKFYGNRFYEKEMECAGTYDGSIDACKGDSGGPLVCMDANNVTYVWGVVSWGENCGKPEFPGVYTKVANYFDWISYHVGRPFISQYNV
B5: Const. No. 33: HSA-GGSSGG-hCFI; H554F (enzyme)
chain: [not shown - about 600 residues]GGSSGGKVTYTSQEDLVEKKCLAKKYTHLSCDKVFCQPWQRCIEGTCVCKLPYQCPKNGTAVCATNRRSFPTYCQQKSLECLHPGTKFLNNGTCTAEGKFSVSLKHGNTDSEGIVEVKLVDQDKTMFICKSSWSMREANVACLDLGFQQGADTQRRFKLSDLSINSTECLHVHCRGLETSLAECTFTKRRTMGYQDFADVVCYTQKADSPMDDFFQCVNGKYISQMKACDGINDCGDQSDELCCKACQGKGFHCKSGVCIPSQYQCNGEVDCITGEDEVGCAGFASVTQEETEILTADMDAERRRIKSLLPKLSCGVKNRMHIRRKRIVGGKRAQLGDLPWQVAIKDASGITCGGIYIGGCWILTAAHCLRASKTHRYQIWTTVVDWIHPDLKRIVIEYVDRIIFHENYNAGTYQNDIALIEMKKDGNKKDCELPRSIPACVPWSPYLFQPNDTCIVSGWGREKDNERVFSLQWGEVKLISNCSKFYGNRFYEKEMECAGTYDGSIDACKGDSGGPLVCMDANNVTYVWGVVSWGENCGKPEFPGVYTKVANYFDWISYFVGRPFISQYNV
B6: Const. No. 36: HSA-GGSSGG-hCFI; A342R (enzyme)
chain: [not shown - about 600 residues]GGSSGGKVTYTSQEDLVEKKCLAKKYTHLSCDKVFCQPWQRCIEGTCVCKLPYQCPKNGTAVCATNRRSFPTYCQQKSLECLHPGTKFLNNGTCTAEGKFSVSLKHGNTDSEGIVEVKLVDQDKTMFICKSSWSMREANVACLDLGFQQGADTQRRFKLSDLSINSTECLHVHCRGLETSLAECTFTKRRTMGYQDFADVVCYTQKADSPMDDFFQCVNGKYISQMKACDGINDCGDQSDELCCKACQGKGFHCKSGVCIPSQYQCNGEVDCITGEDEVGCAGFASVTQEETEILTADMDAERRRIKSLLPKLSCGVKNRMHIRRKRIVGGKRAQLGDLPWQVAIKDRSGITCGGIYIGGCWILTAAHCLRASKTHRYQIWTTVVDWIHPDLKRIVIEYVDRIIFHENYNAGTYQNDIALIEMKKDGNKKDCELPRSIPACVPWSPYLFQPNDTCIVSGWGREKDNERVFSLQWGEVKLISNCSKFYGNRFYEKEMECAGTYDGSIDACKGDSGGPLVCMDANNVTYVWGVVSWGENCGKPEFPGVYTKVANYFDWISYHVGRPFISQYNV

Target: T1, human C4b (human, UniProt P0C0L5 20-1744)
T1 chain 1: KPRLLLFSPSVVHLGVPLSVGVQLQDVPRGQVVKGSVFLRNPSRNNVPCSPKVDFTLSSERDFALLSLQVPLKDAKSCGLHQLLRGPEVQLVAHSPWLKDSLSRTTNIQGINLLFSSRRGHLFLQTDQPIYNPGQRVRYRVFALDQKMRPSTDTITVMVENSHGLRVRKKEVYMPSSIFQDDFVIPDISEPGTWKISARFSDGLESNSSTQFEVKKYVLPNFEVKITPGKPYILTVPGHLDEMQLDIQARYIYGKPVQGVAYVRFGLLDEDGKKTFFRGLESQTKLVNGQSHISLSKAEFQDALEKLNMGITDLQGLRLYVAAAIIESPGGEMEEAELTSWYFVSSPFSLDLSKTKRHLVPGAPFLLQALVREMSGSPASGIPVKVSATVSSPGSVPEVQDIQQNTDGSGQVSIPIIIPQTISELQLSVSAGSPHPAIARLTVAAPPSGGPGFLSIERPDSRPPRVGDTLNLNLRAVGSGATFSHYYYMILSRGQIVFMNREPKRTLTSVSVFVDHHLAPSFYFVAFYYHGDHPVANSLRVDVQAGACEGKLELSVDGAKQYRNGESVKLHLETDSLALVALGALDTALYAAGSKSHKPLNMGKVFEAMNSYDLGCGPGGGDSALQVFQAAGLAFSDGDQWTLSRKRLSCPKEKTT
T1 chain 2: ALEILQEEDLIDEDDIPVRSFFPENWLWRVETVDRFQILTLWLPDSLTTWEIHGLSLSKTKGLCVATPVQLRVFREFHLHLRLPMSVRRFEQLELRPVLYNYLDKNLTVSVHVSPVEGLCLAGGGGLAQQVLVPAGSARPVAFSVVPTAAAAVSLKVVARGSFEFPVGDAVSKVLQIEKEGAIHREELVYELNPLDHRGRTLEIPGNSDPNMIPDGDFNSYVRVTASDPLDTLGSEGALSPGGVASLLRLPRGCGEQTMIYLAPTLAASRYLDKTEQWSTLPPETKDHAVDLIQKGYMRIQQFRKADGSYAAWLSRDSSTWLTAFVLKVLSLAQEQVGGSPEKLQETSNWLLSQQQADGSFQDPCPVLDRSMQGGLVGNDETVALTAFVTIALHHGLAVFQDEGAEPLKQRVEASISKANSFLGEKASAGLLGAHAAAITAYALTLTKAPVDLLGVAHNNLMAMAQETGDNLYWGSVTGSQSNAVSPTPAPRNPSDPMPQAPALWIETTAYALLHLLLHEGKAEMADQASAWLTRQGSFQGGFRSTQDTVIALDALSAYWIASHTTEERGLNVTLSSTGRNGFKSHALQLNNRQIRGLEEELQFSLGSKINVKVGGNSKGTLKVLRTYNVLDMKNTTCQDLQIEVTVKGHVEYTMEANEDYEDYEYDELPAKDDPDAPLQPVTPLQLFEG
T1 chain 3: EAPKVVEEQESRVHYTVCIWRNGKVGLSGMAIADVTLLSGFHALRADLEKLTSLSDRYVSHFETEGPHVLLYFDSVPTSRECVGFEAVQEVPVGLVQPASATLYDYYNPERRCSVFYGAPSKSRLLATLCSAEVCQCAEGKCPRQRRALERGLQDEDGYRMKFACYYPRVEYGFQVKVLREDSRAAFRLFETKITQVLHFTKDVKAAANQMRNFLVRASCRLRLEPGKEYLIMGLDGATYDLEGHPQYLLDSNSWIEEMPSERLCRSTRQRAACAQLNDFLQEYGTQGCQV
Experiment: cell-based or functional assay

Point of comparison: B3, “C4c EC50” value 367 nM. Against it:
- B1 — 3.9-fold lower, 93.2 nM
- B2 — 3.7-fold lower, 99.6 nM
- B4 — 2-fold lower, 183 nM
- B5 — 1.9-fold higher, 707 nM
- B6 — 1.8-fold lower, 205 nM
